Measured values as given in the supplement of paper PMC11417369.
This is one part of the list.

These sequences were tested on PfHDP1 homeodomain (GST-tagged) (assay: gcPBM binding intensity (ln(normalized median fluorescence intensity)); higher = stronger DNA binding).
In short: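 An Agilent 4 × 180k array of primer-extended double-stranded 36-bp intergenic genomic probes, with negative controls, was incubated for 1 h with GST-tagged P. falciparum DNA-binding domains expressed in E. coli. Alexa488 anti-GST antibody detected bound protein, scanned at 488 nm. Binding intensity is the highest Masliner-normalised natural-log median intensity across replicate spots of either probe orientation.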

Row | Sequence | gcPBM binding intensity (ln)
1 | TTATATATACCTAAGACACACACATATATATATATA [CACACA_site8153] | 9.25
2 | ATTAAATATGTCAAGTGTACAAAATGTAAAAAAAAA [XGTACX_site4119] | 6.78
3 | TAAATATATATATACACACACACCAAAGCAATAGAT [CACACA_site2940] | 7.4
4 | GCCATTGTACCATCCACACACATATAAATATGTATA [CACACA_site7303] | 7.4
5 | TTTAATACGAATGAGGCACACACCTAGTATACATGC [CACACA_site621] | 6.69
6 | TTTAATTTTTTTAAAACACACAAATATATATATATA [CACACA_site3898] | 9.08
7 | CAAAATAATATATATACACACACACCGATATATATA [CACACA_site8082] | 6.83
8 | TATATAAAATATTAATGTACATATAAATATATATAT [XGTACX_site6656] | 7.71
9 | ATTTATGAAAGAAATAGTACACACATAAACATTTGT [XGTACX_site5862] | 6.8
10 | GTAATTAAAATATATACACACAAAGGCTATTAAATA [CACACA_site1011] | 6.53
11 | AATATAATATAATGCACACATAAACAAAAAAAAAAA [CACACA_site783] | 10.5
12 | AACAAAGAAAATACATGTACAAAAAATATTAACGAA [XGTACX_site287] | 7.24
13 | TGGTATTTTGATGATAAAAGGAAATTTTTTTTATAC [XGTACX_negctrl_site111] | 6.07
14 | GTTAGCATATTAAGTTGTACACAATTATTCTTCAAT [XGTACX_site8324] | 7.01
15 | TTACAAAAATTTTGTTCACACATAAAAATATGTTAC [CACACA_site5740] | 6.32
16 | ATATATTTTTCAAAATGTACAAATAATTAAATACCA [XGTACX_site875] | 6.35
17 | TAATAAATTATTTTTTATTATTTTAATAACACTTCA [CACACA_negctrl_site3] | 5.84
18 | ATTAATAATCGAAAGGTGCACTTTGATTTGATAACA | 8.87
19 | TTATTATTTTATCGTAGTACACCTAAATTATAAAAC [XGTACX_site5251] | 6.57
20 | TAATTAAAATTATTTATAAATTAGTATATTTCTATA [CACACA_negctrl_site663] | 6.06
21 | AATTATATATTAAAAAGTACAAGTTAATATAATATA [XGTACX_site2737] | 6.64
22 | TATTGTAATATTATATATATCTATTATGTATATAAA [CACACA_negctrl_site454] | 6.12

Row | Sequence | gcPBM binding intensity (ln)
23 | ATATAAAAAAATTGCACACATAAATATATACATATA [CACACA_site1218] | 10.1
24 | TTTATGTACAGACATATACACACCTCTATAATATAT [CACACA_site730] | 6.82
25 | GATACATAGAAACACACACACATACATATATACATA [CACACA_site3438] | 6.94
26 | CCGATATAATGGAAAACACACAAAAGATATATATAT [CACACA_site2683] | 8.17
27 | ACATACATTTTTAAATGTACATATATATATATATAT [XGTACX_site6751] | 9.31
28 | ATATGGCACATATGTACACACGTATAGATAATATTA [CACACA_site5162] | 6.68
29 | ATTTATTTATTTATATGTACTTAAATGAAAGGAATA [XGTACX_site6024] | 6.41
30 | TTTCAAAATTTTTATTTTAAATAAACATTTATAAAA [CACACA_negctrl_site1588] | 6.08
31 | AATATTATATGGACGTGTCCACATAAACCTATATAT [XGTACX_site2053] | 6.35
32 | ATGAATATATATATTTGTACATATGTATATATATAT [XGTACX_site7527] | 8.64
33 | TATATATTTTTTTCATGTACTTATTATATATATATA [XGTACX_site5321] | 8.47
34 | GGAAATATAAAATCATGTACATATGTATATATAATT [XGTACX_site5491] | 6.47
35 | AGTATAGATGTATACACACACCAAACGTTAAAAAAA [CACACA_site7443] | 6.96
36 | TTAGTAAATACATTTGCACACATTATTTTTTAACAT [CACACA_site5448] | 10.7
37 | TACAAACAGACATATACACACAAAAAAAAAATAAAA [CACACA_site2562] | 6.63
38 | TCGATATATAGACACACACACTTTTAATAATTAAAT [CACACA_site7726] | 6.7
39 | TTATGCAGATAAAAGAGTACATATTCGTTACATACA [XGTACX_site2849] | 6.37
40 | TATATATATATATATATATATATATATATAATATTA [XGTACX_negctrl_site558] | 9.37
41 | AATCATATTTAGATTACACACAGTTTAAATATTTTA [CACACA_site1263] | 6.18
42 | TGTAATGTTTACAACACACAAATTATAAATACAAAA [CACACA_site5047] | 6.53
43 | TATTTAAATGGATGCACACATGCATTAAATAAAATA [CACACA_site3433] | 8.59
44 | TATCATCATGTATGTACACACATACAGATATTATGT [CACACA_site4888] | 6.38

Row | Sequence | gcPBM binding intensity (ln)
45 | AAATACAAAATTGTTACACACATATTAATTATGACA [CACACA_site476] | 6.25
46 | ATATAAATATAGTGTGCACACACATAATATATATAT [CACACA_site8713] | 10.7
47 | TATATTTTAAAATTATGTACATATATAGATAAATGT [XGTACX_site1349] | 6.64
48 | AAAATAAATTGTGAAGGTACACAAATTATTATGTGG [XGTACX_site4196] | 6.38
49 | ATATATATATATAATACACACATCATAAAATATGTA [CACACA_site2518] | 8.86
50 | AAGCCTTAAAAGGAAAGTACGTATATATATATATAT [XGTACX_site8559] | 9.48
51 | ATATTTAATTAAAAGAGTACTTAAATAAAATAAATG [XGTACX_site2149] | 6.33
52 | ATGAAACATGTATATTGTACTCTGGATCAATTTAAT [XGTACX_site6413] | 6.32
53 | AATAAATAAATACATCTCAGTATATAAACAAACAAA [CACACA_negctrl_site1604] | 6.75
54 | AAATTTATTATATATACATGCAATCATAAATAATGT [TGCATGCA_site539] | 6.27
55 | AAGAAAATAGAAAATACACACAGCAAACAGAGGAAT [CACACA_site3785] | 7
56 | AATGTATATATATATATATATATATATATTTATTTA [CACACA_negctrl_site113] | 7.05
57 | ATATATATATATTTATGTACATATATTTTTTTTTTT [XGTACX_site8558] | 8.94
58 | AAGAAAAAAAAAAATATATATACATATATATATATA [TGCATGCA_negctrl_site485] | 8.91
59 | AATACTTATTATGAAACACACACCAAAACTACATAA [CACACA_site270] | 6.95
60 | AAAAAAAAAAAACACACACACACACTAGTATATAAA [CACACA_site4783] | 6.64
61 | GGATATAACAAACACACACACACATATATATATATT [CACACA_site4141] | 6.93
62 | AATACATATAATACAACACACAAGTAATATAAACCT [CACACA_site3597] | 6.95
63 | TTTAAATGAAAAAAAGGTACACAATATTATTCTTAT [XGTACX_site8612] | 6.47
64 | ATCCTAATATTGAACTGTACCTTATATGTTATTATA [XGTACX_site1014] | 6.75
65 | GGTTATATATTTTTTGCACACCAAAAAAGAGAATAT [CACACA_site2731] | 10.1
66 | TATATATATATATATACACACATATATACATATATA [CACACA_site4043] | 9.49

Row | Sequence | gcPBM binding intensity (ln)
67 | TATACATACACATACACACATACACCCATACACATA [CACACA_site1746] | 7.33
68 | TTCTTCTAATCCTTTTATCTCATTAAAAAAATATAA [CACACA_negctrl_site12] | 6.52
69 | AATAATAAATCAAACTGTACATATATTTTCAATCTA [XGTACX_site3344] | 6.18
70 | TGTAGTCTGGAGAAAAGTACACAGTATCCGGTAACT [XGTACX_site4934] | 6.18
71 | TTTTTTTTTTTGTTCACACATATATATATATATATA [CACACA_site5376] | 9.44
72 | TTATAAATAAAAAATACACACATATATTTATTTATA [CACACA_site6242] | 6.39
73 | ATAATATATGAAAGTGGTACACAAAGGAAAATAAAA [XGTACX_site333] | 7.61
74 | TTTATATTAATTGATGTGCACTGAAATATTTGTCCA [GTGCAC_site9655] | 9.08
75 | ACCCTATAGGTAACTACACACCGCATATTGTTTACT [CACACA_site7436] | 6.81
76 | TTAACTATGAATACATGTACATGAAAATATTTCAAT [XGTACX_site1069] | 6.59
77 | AAAATTAAACAAAGTTGTACAAAATAATAATAAAAG [XGTACX_site7515] | 7.05
78 | AAATTAATAAAAAATGGTACACAAAATGGATGTATA [XGTACX_site1561] | 6.65
79 | GGCAAATTTATTATACCCACATACATACATACATAC [XGTACX_negctrl_site186] | 7.62
80 | CCATGTCACAATTTTTCACACACAAAATTTATATAC [CACACA_site8628] | 6.9
81 | ATATACACACATAAGTGTACTTATATTTCATATATA [XGTACX_site8646] | 6.68
82 | TAATTAACAAACTATAGTACACAAAATACTTCATAT [XGTACX_site6375] | 6.35
83 | AAAATAAAATAAAACACAAAAAAATAAAACAAAATA [CACACA_negctrl_site16] | 6.75
84 | TCTATGCGTTTTAATAGTACATATAAAATTTATACA [XGTACX_site6986] | 6.37
85 | AAATATGTTTATATATGTACTTATAATTCAAAATAT [XGTACX_site2167] | 6.12
86 | TATATATCCATGTGTACACACAAAAAAAAATAAAGT [CACACA_site7107] | 7.52
87 | AAATAAAATATATACATATATATATTATTTAGTAAT [XGTACX_negctrl_site375] | 6.28
88 | TATGTATATTATATGACACACATTTATATATATATA [CACACA_site1167] | 8.77
